For this test, the system named is L1210 leukemia ip in BDF1 mice, survival T/C. Description: NCI In Vivo Anticancer Drug Screen. Data for tumor model L1210 Leukemia (intraperitoneal) in B6D2F1 (BDF1) mice. The settings on record: endpoint: mean survival time, higher = longer survival.

Inconclusive results and toxic doses are left out. Certain results were filed several times, with different values. This list holds those alone. The source may hold further records. The records of an entry repeat one measurement across runs, samples, wells, individuals or studies. Marks in square brackets tell the records apart. Letters hold for one entry only.

Regarding `O=C(O)C1CSC(c2ccccc2)N1` (stereo unspecified), the T/C (dose: 400.0 mg/kg/injection, schedule: Q01DX001 (ip), vehicle: other) is recorded as 91 % of control, 93 % of control, 156 % of control.

Turning to `Nc1nc(=S)c2ncn(C3OC(CO)C(O)C3O)c2[nH]1` (stereo unspecified), the T/C (dose: 100.0 mg/kg/injection, schedule: Q01DX005 (ip), vehicle: saline) was 106 % of control [sample A] and 160 % of control [sample B].

Regarding `S=c1nc[nH]c2nc[nH]c12.[Ag]`, for the setting “dose: 25.0 mg/kg/injection, schedule: Q01DX009 (ip), vehicle: carboxymethylcellulose (CMC)”, the T/C is 118 % of control and 154 % of control.

In the case of `CCCN(CCC)CCCOC(=O)c1ccc(N)cc1`, the T/C (dose: 100.0 mg/kg/injection, schedule: Q04DX003 (ip), vehicle: saline) is 98 % of control, 100 % of control, 156 % of control.

For `Cc1ccc(NC(=O)N(CCCl)N=O)cc1NC(=O)c1ccccc1`, the T/C (dose: 118.0 mg/kg/injection, schedule: Q01DX009 (ip), vehicle: carboxymethylcellulose (CMC)) is on record as 103 % of control, 156 % of control, 174 % of control.

As for `CC(C)CC(NC(=O)c1ccccc1)C(=O)O` (stereo unspecified), for the setting “dose: 400.0 mg/kg/injection, schedule: Q01DX009 (ip), vehicle: saline with Tween-80”, the T/C is 92 % of control and 159 % of control.

Take `CCCCn1cnc2c(=S)nc[nH]c21`: the T/C is, setting by setting: (dose: 128.0 mg/kg/injection, schedule: Q01DX009 (ip), vehicle: saline) 118 % of control and 154 % of control; (dose: 128.0 mg/kg/injection, schedule: Q01DX Z (ip), vehicle: saline) 117 % of control and 150 % of control.

Take `Cc1ccc(S(=O)(=O)OCCN(CCOS(=O)(=O)c2ccc(C)cc2)c2ccc(F)cc2)cc1`: under “dose: 36.0 mg/kg/injection, schedule: Q01DX009 (ip), vehicle: saline”, the T/C was 120 % of control and 152 % of control.

As for `N#Cc1cn(C2OC(CO)C(O)C2O)c2ncnc(N)c12` (stereo unspecified), the T/C (dose: 0.19 mg/kg/injection, schedule: Q01DX005 (ip), vehicle: saline) was 107 % of control and 150 % of control.

As to `C(=N\Nc1nn[nH]n1)/c1ccncc1`, for the setting “dose: 200.0 mg/kg/injection, schedule: Q01DX009 (ip), vehicle: saline with Tween-80”, the T/C was 100 % of control and 191 % of control.

`O=c1[nH]cc(N(CCCl)CCCl)c(=O)[nH]1`: the T/C (dose: 2.2 mg/kg/injection, schedule: Q03DX006 (ip), vehicle: carboxymethylcellulose (CMC)) was 90 % of control and 192 % of control; the T/C (dose: 2.5 mg/kg/injection, schedule: Q07DX003 (ip), vehicle: carboxymethylcellulose (CMC)) was 101 % of control and 152 % of control.

Consider `NC(CSCc1ccc(N(CCCl)CCCl)cc1)C(=O)O` (stereo unspecified), for which the T/C (dose: 13.0 mg/kg/injection, schedule: Q01DX Z (ip), vehicle: other) was 115 % of control, 151 % of control, 156 % of control.

As to `NC(CCSCc1ccc(N(CCCl)CCCl)cc1)C(=O)O` (stereo unspecified), the T/C reads like this: (dose: 18.0 mg/kg/injection, schedule: Q01DX Z (ip), vehicle: saline) 120 % of control, 155 % of control, 175 % of control; (dose: 24.0 mg/kg/injection, schedule: Q01DX Z (ip), vehicle: saline) 122 % of control and 182 % of control.

The values are drawn from PubChem BioAssay AID248 (DTP/NCI, 2004).
